# Data from paper PMC3240821 (Structure (London, England : 1993), 2011).
# Target: T1, recombinant Ex-FABP (Gallus gallus, UniProt P21760)
# T1 sequence (P21760 23-178): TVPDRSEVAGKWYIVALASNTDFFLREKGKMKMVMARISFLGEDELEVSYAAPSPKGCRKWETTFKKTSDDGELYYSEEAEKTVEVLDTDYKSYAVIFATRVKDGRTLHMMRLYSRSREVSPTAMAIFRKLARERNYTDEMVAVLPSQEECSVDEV
# Assay: Fluorescence quenching
# Type: binding, chicken
# Details: protein 100 nM in TBS pH 7.4; detection threshold KD ≤ 600 nM
row,Molecule,Kd
1,"CC(=O)N(O)CCCC[C@H](NC(=O)CC(O)(CC(=O)N[C@@H](CCCCN(O)C(C)=O)C(=O)O)C(=O)O)C(=O)O [[Fe^III(Aerobactin)], aerobactin]",> 600 nM
2,C[C@H]1OC(=O)[C@@H](NC(=O)CNC(=O)c2cccc(O)c2O)[C@@H](C)OC(=O)[C@@H](NC(=O)CNC(=O)c2cccc(O)c2O)[C@@H](C)OC(=O)[C@H]1NC(=O)CNC(=O)c1cccc(O)c1O [[Fe^III(BB)]^3−] [bacillibactin],14 ± 2 nM
3,"CC(=O)N[C@@H](CCCN([O-])C(=O)/C=C(\C)CCO)C(=O)OCC/C(C)=C/C(=O)N([O-])CCC[C@@H]1NC(=O)[C@H](CCCN([O-])C(=O)/C=C(\C)CCO)NC1=O.[Fe+3] [[Fe^III(Coprogen)], coprogen]",> 600 nM
4,"C[C@H]1OC(c2ccccc2O)=N[C@@H]1C(=O)N(CCCCNC(=O)c1cccc(O)c1O)CCCNC(=O)c1cccc(O)c1O [[Fe^III(PaB)]^2−, parabactin]",42 ± 8 nM
5,"C[C@H]1OC(=O)[C@@H](NC(=O)CNC(=O)c2cccc(O)c2O)[C@@H](C)OC(=O)[C@@H](NC(=O)CNC(=O)c2cccc(O)c2O)[C@@H](C)OC(=O)[C@H]1NC(=O)CNC(=O)c1cccc(O)c1O [apo(BB), bacillibactin]",30 ± 2 nM
6,enterobactin [[Fe^III(Ent)]^3−],0.22 ± 0.06 nM
7,exochelin [[Fe^III(ExochelinMS)]],> 600 nM
8,ferric monoglucosylated Ent [[Fe^III(MGE)]^3−],0.07 ± 0.02 nM
9,monoglucosylated Ent [apo(MGE)],1.1 ± 0.15 nM
